Test results taken from patent publication US20150071942A1, “COMBINATION THERAPY OF ANTI-MIF ANTIBODIES AND CHEMOTHERAPEUTICS” (Baxter Healthcare SA, priority 2012, published 2015).

What was measured:
[1] = test system: Colo357 human pancreatic cancer cell line; experiment: Orthotopic Colo357 xenograft model for pancreatic cancer in nude mice (survival, tumor volume, microvessel density); format: in vivo; conditions: for blood vessel density in the tumour microenvironment: day 12, FITC-conjugated tomato lectin
Procedure: Control groups were left untreated or were treated with gemcitabine alone (Gem) or a control human monoclonal antibody alone (Control) or with a control human monoclonal antibody in combination with gemcitabine (Control+Gem). (A) Survival curves representing the points in time when animals had to be sacrificed in accordance with UK Home Office Guidance. (B) Tumor volume was measured in as subset of animals after animals had been sacrificed on day 20 after cell implantation. (C) After treatment, mice bearing a Colo357 xenograft were injected i.v. with the FITC-conjugated tomato lectin to visualize the blood vessels on day 12. Microvessel density was quantified using ImagePro Plus software (Image-Pro plus, Media Cybernetics) and vessel density was expressed as the mean percentage of total surface area.
(§1) CD1-Foxn1/nu nude mice are orthotopically inoculated with 1×10^5 Colo357 cells (injection of 30 μl matrigel:tumor cell suspension into the pancreas) and the tumor was allowed to establish for 7 days. […] Additional control groups were left untreated or received a control human IgG1 monoclonal antibody. The growth of internal tumors was judged by external signs (e.g. abdominal distension causing more than 20% increase in normal body weight, or a 20% loss in normal body weight) or clinical signs (e.g. dyspnoea, jaundice, neurological signs, digestive disturbances). Animals reaching the home office limit according to the UK home office guidance were sacrificed (for animal welfare reasons). The resulting survival curve was used as primary outcome of the study.
We further analyzed […] vessel density in a small cohort of animals. All mice were orthotopically injected with Colo357 cells, tumours were established for 1 week and the different groups were treated as described above. On day 12, mice were anesthetized and injected with FITC-conjugated tomato lectin to visualize the blood vessel density within the tumor. The lectins were allowed to circulate for 3 min before animals were perfused with 4% paraformaldehyde. Tumors were cut into 50 μm sections. Cell nuclei were stained using propidium iodide, and vessels were visualized using confocal microscopy (Zeiss LSM 510 META), and microvessel density was quantified using ImagePro Plus software (Image-Pro plus, Media Cybernetics). Vessel density was expressed as the mean

[2] = test system: A2780adr ovarian cancer cells; experiment: Induction of apoptosis (caspase 3 activity) in doxorubicin-resistant ovarian cancer cells; format: cell-based, human; conditions: for Effect: Ovarian cancer, antibody combined with Doxorubicin, In vitro; for caspase 3 activity: 72 hours of treatment
Procedure: The percentage increased caspase 3 activity over non-treated cells is indicated. Cells were treated with a human isotype control IgG (Control IgG), anti-MIF antibody RAM0 or RAM9 alone, a combination of control IgG and doxorubicin (Control IgG+Dox), doxorubicin alone (Dox) or a combination of anti-MIF antibody and doxorubicin (RAM0+Dox or RAM9+Dox).
The induction of apoptosis was assessed by detection of caspase 3 activity after 72 hours of treatment.

[3] = test system: A2780 cells; experiment: Cisplatin-dependent cell killing assay (calcein-AM, flow cytometry); format: cell-based, human
Procedure: Data are the means±standard deviation of 9 independent experiments.
(§2) After 48 hours of incubation cells were detached with Accutase™, labeled with calcein-AM and the level of calcein fluorescence was determined by flow cytometry. The mean fluorescence intensity in the absence of any drug or antibody was set to 1 to normalize for interassay variations. The mean fluorescent intensities were blotted against the cisplatin concentration and the half maximum active concentrations of cisplatin (EC50-values) were calculated.

[4] = test system: A2780 xenografts; experiment: A2780 ovarian cancer xenograft in Mf1 nude mice (tumor growth); format: in vivo, human
Procedure: Tumor weights are indicated after treatment of inoculated mice with a human control IgG or with RAM0. Antibodies were applied either alone or in combination with cisplatin.
This effect is of high relevance, in particular if it can also be observed in vivo. This was explored in female Mf1 nude mice inoculated with A2780 xenografts (FIG. 5). Mice (n=10/group) were inoculated with 1*10^6 A2780 cells resuspended in matrigel. […] Cisplatin was administered once a week starting on day 2 after xenograft inoculation.

[5] = test system: LnCAP cells; experiment: Mitoxantrone-dependent cell killing assay (calcein-AM, flow cytometry); format: cell-based, human
Procedure: The single values as well as the mean±standard deviation of 10 independent experiments are shown.
as §2, with “plotted” for “blotted”, “mitoxantrone” for “cisplatin”

[6] = molecular target: T1, oxMIF (Homo sapiens, UniProt P14174); experiment: Differential binding of the antibodies to oxMIF (ELISA or Biacore)
T1 sequence (P14174 2-115 limits assumed): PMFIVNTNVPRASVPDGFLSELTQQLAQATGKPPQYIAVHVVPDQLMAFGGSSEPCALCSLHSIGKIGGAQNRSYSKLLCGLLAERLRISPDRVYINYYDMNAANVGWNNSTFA
Procedure: (§3) The anti-oxMIF antibodies described in this invention are able to discriminate between ox and red MIF, which are generated by mild oxidation or reduction, respectively. The anti-oxMIF antibodies are useful to specifically detect oxMIF. Discrimination between these conformers is assessed by ELISA or surface plasmon resonance. Both techniques can be performed as well known to a person skilled in the art and as described below.
(§4) The antibodies were coated on a CM5 (=carboxymethylated dextran) chip and recombinant MIF protein, pre-incubated with 0.2% Proclin300, were injected. (Proclin300 consists of oxidative isothiazolones that stabilize the oxMIF structure).
(§5) The antibodies of the invention, as defined hereinabove and hereinafter, have the same specificities. They thus also show similar results in the experiments as carried out by the present inventors.

[7] = molecular target: T2, redMIF (Homo sapiens, UniProt P14174); experiment: Differential binding of the antibodies to redMIF (ELISA or Biacore); conditions: MIF in its reduced state
T2 sequence (P14174 1-115): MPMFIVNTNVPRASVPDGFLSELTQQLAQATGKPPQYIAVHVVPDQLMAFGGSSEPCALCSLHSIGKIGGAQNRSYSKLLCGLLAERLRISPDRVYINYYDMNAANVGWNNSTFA
Procedure: as §3, §4, §5

[8] = test system: BxPC3 human pancreatic cancer cells; experiment: Orthotopic BxPC3 xenograft model for pancreatic cancer in nude mice (survival); format: in vivo
Procedure: Control groups were left untreated (left and right panel, dotted black line) or were treated with a control human monoclonal antibody (Control IgG, left panel, solid grey line) or with gemcitabine alone (Gemcitabine, left panel, solid black line). The survival curves represent the points in time when animals had to be sacrificed in accordance with UK Home Office Guidance.
as §1, with “BxPC3 cells are derived from a human pancreatic adenocarcinoma and grow inside the pancreas once they have been injected orthotopically in nude mice and present as a solid tumor. CD1-Foxn1/nu” for “CD1-Foxn1/nu”, “1×10^6 BxPC3” for “1×10^5 Colo357”

[9] = Pancreatic cancer, antibody combined with Gemcitabine, In vivo
[10] = anti-MIF antibody in combination with doxorubicin

B1: RAM0: fully human anti-MIF (anti-oxMIF) antibody; heavy chain SEQ ID NO: 9, light chain SEQ ID NO: 10; DSM 25864/25863 (antibody)
heavy: EVQLLESGGGLVQPGGSLRLSCAASGFTFSWYAMDWVRQAPGKGLEWVSGIYPSGGRTKYADSVKGRFTISRDNSKNTLYLQMNSLRAEDTAVYYCARVNVIAVAGTGYYYYGMDVWGQGTTVTVSSASTKGPSVFPLAPSSKSTSGGTAALGCLVKDYFPEPVTVSWNSGALTSGVHTFPAVLQSSGLYSLSSVVTVPSSSLGTQTYICNVNHKPSNTKVDKRV[here human IgG1 Fc without letters]
light: DIQMTQSPGTLSLSPGERATLSCRASQGVSSSSLAWYQQKPGQAPRLLIYGTSSRATGIPDRFSGSASGTDFTLTISRLQPEDFAVYYCQQYGRSLTFGGGTKVEIKRTVAAPSVFIFPPSDEQLKSGTASVVCLLNNFYPREAKVQWKVDNALQSGNSQESVTEQDSKDSTYSLSSTLTLSKADYEKHKVYACEVTHQGLSSPVTKSFNRGEC
modifications: RAM0hc; RAM0lc
notes: fully human anti-MIF (anti-oxMIF) antibody; DSM 25864/25863
For B1, the survival ([1]; 60 mg/kg RAM0 in combination with 100 mg/kg gemcitabine) was “greater than the effect of the two agents alone”, the tumor volume ([1]; 60 mg/kg RAM0 in combination with 100 mg/kg gemcitabine, day 20 after cell implantation) was “strongly reduced tumor volume” and the Effect [1, 9] was “Synergy”. The “blood vessel density in the tumour microenvironment” value ([1]; RAM0 in combination with gemcitabine) was “normalises blood vessel density”, the “blood vessel density in the tumour microenvironment” value ([1]; monotherapy) was “Neither gemcitabine nor RAM0 have a significant effect” and the survival ([1]; monotherapy, gemcitabine 100 mg/kg or RAM0 60 mg/kg alone, i.p., Colo357 in nude mice) was “significant effect on survival”. For the same molecule, the Effect [2] was “Synery”, the “caspase 3 activity” value ([2]; agent alone) was “did not show any enhanced caspase 3 activity” and the “caspase 3 activity” value [2, 10] was “further enhanced caspase 3 activity”. The Effect ([3]; Ovarian cancer, antibody combined with Cisplatin, In vitro) was “Synergy”, the cell killing ([3]; antibody as monotherapy (in absence of cisplatin), in comparison to isotype control antibody, data not shown) was “no effect on cell killing” and the Effect ([4]; Ovarian cancer, antibody combined with Cisplatin, In vivo) was “Synergy”. The tumor growth ([4]; RAM0 15 mg/kg in combination with cisplatin, p=0.04) was “significantly reduced tumor growth”, the tumor growth ([4]; monotherapy, RAM0 15 mg/kg every other day or cisplatin once a week) was “minor but not significant effect” and the Effect ([5]; Prostate cancer, antibody combined with Mitoxantrone, In vitro) was “Synergy”. For the same molecule, the cell killing ([5]; antibody as monotherapy (in absence of mitoxantrone), in comparison to isotype control antibody, data not shown) was “no effect on cell killing”, the “binding to oxMIF” value [6] was “specifically bind to oxMIF” and the “binding to redMIF” value [7] was “incapable of binding to redMIF”.

B2: RAM9: fully human anti-MIF (anti-oxMIF) antibody; heavy chain SEQ ID NO: 11, light chain SEQ ID NO: 12; DSM 25860/25859 (antibody)
heavy: EVQLLESGGGLVQPGGSLRLSCAASGFTFSIYSMNWVRQAPGKGLEWVSSIGSSGGTTYYADSVKGRFTISRDNSKNTLYLQMNSLRAEDTAVYYCAGSQWLYGMDVWGQGTTVTVSSASTKGPSVFPLAPSSKSTSGGTAALGCLVKDYFPEPVTVSWNSGALTSGVHTFPAVLQSSGLYSLSSVVTVPSSSLGTQTYICNVNHKPSNTKVDKRV[here human IgG1 Fc without letters]
light: DIQMTQSPSSLSASVGDRVTITCRSSQRIMTYLNWYQQKPGKAPKLLIFVASHSQSGVPSRFRGSGSETDFTLTISGLQPEDSATYYCQQSFWTPLTFGGGTKVEIKRTVAAPSVFIFPPSDEQLKSGTASVVCLLNNFYPREAKVQWKVDNALQSGNSQESVTEQDSKDSTYSLSSTLTLSKADYEKHKVYACEVTHQGLSSPVTKSFNRGEC
modifications: RAM9hc; RAM9lc
notes: fully human anti-MIF (anti-oxMIF) antibody; DSM 25860/25859
B2 was tested, and the “overall survival of the mice” value ([8]; 60 mg/kg RAM9 in combination with 100 mg/kg gemcitabine) was 20%, the “survival of the xenografted mice” value ([8]; 60 mg/kg RAM9 in combination with 100 mg/kg gemcitabine, compared to either agent alone) was “substantial survival advantage” and the Effect [8, 9] was “Synergy”. The Effect [2] was “Synergy”, the “caspase 3 activity” value ([2]; agent alone) was “did not show any enhanced caspase 3 activity” and the “caspase 3 activity” value [2, 10] was “further enhanced caspase 3 activity”. For the same molecule, the “binding to oxMIF” value [6] was “specifically bind to oxMIF” and the “binding to redMIF” value [7] was “incapable of binding to redMIF”.
